# The list shows a part of the results. Viral Rep nickase domains cut single-stranded DNA in vitro (1 h at 37 °C, 3 µM enzyme); the outer parts of the 90-letter strands are left off. Numbers give uncut DNA relative to the enzyme-free pool, as log2; strong cutting gives strongly negative numbers. There is no active / inactive call. Shares of all reads are compared, so uncut sequences can rise above 0 when many others are cut.
# Legend:
# Test in all cases: uncleaved DNA left, log2 of reads against the no-enzyme library (log2 ratio); higher = less cleavage (more negative = more Rep cleavage of the k-mer); sequences stand for … in CTCGTCCG…ACCGGAGA
# [1] = test system: T1, Rep nickase domain of Muscovy duck circovirus
# T1 sequence (residues 1-111 of Rep, tag left off): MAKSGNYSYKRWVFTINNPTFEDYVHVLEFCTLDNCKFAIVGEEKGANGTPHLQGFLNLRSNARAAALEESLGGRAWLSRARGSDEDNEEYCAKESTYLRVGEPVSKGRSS
# Procedure: (§1)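 A pool of 90-nt single-stranded DNAs with seven random bases just before the constant AC of the nick site (name = the seven bases) was cut by 3 µM recombinant His6-SUMO-tagged Rep nickase domain (300 nM DNA, 50 mM HEPES pH 8.0, 50 mM NaCl, 1 mM MnCl2, 1 h, 37 °C, three replicates). Uncut DNA was amplified and sequenced.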
# [2] = test system: T2, Rep nickase domain of banana bunchy top virus
# T2 sequence (residues 1-94 of Rep, tag left off): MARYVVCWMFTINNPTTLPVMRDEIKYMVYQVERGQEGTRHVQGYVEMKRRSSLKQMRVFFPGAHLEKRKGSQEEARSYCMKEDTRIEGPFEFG
# Procedure: as §1
# [3] = test system: T3, Rep nickase domain of cabbage leaf curl virus
# T3 sequence (residues 1-116 of Rep, tag left off): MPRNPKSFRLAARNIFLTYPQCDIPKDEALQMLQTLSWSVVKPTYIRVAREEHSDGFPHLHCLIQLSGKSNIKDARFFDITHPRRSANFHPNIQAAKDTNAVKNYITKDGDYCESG
# Procedure: as §1
# [4] = test system: T4, Rep nickase domain of chickpea chlorotic dwarf virus
# T4 sequence (residues 1-124 of Rep, tag left off): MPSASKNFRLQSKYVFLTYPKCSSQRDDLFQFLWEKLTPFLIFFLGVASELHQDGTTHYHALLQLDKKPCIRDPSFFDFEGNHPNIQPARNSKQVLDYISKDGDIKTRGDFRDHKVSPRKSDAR
# Procedure: as §1
# [5] = test system: T5, Rep nickase domain of faba bean necrotic yellows virus
# T5 sequence (residues 1-98 of Rep, tag left off): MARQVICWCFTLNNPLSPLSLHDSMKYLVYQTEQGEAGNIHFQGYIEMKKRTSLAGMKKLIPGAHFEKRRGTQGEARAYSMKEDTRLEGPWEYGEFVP
# Procedure: as §1
# [6] = test system: T6, Rep nickase domain of maize striate mosaic virus
# T6 sequence (residues 1-117 of Rep, tag left off): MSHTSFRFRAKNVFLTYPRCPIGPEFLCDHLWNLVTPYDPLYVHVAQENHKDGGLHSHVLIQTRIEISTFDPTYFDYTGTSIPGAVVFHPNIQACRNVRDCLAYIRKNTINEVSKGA
# Procedure: as §1
# [7] = test system: T7, Rep nickase domain of porcine circovirus 2
# T7 sequence (residues 2-116 of Rep, tag left off): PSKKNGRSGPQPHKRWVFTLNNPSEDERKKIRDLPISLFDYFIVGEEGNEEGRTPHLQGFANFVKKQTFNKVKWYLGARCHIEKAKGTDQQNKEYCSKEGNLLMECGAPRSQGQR
# Procedure: as §1
# [8] = test system: T8, Rep nickase domain of tomato yellow leaf curl virus
# T8 sequence (residues 1-136 of Rep, tag left off): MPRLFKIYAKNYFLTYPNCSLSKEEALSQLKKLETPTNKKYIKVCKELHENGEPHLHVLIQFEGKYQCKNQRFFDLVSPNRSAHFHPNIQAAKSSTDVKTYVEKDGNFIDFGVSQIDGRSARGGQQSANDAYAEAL
# Procedure: as §1
# [9] = test system: T9, Rep nickase domain of wheat dwarf virus
# T9 sequence (residues 1-137 of Rep, tag left off): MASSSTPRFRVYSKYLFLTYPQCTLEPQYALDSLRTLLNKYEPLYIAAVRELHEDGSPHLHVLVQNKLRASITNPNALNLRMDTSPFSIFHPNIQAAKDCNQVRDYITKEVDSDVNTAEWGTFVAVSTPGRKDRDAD
# Procedure: as §1
Sequence,uncleaved DNA left (log2) [1],uncleaved DNA left (log2) [2],uncleaved DNA left (log2) [3],uncleaved DNA left (log2) [4],uncleaved DNA left (log2) [5],uncleaved DNA left (log2) [6],uncleaved DNA left (log2) [7],uncleaved DNA left (log2) [8],uncleaved DNA left (log2) [9]
AACGGTC,-0.00671,-0.0173,0.0486,0.505,0.0191,0.521,0.0888,-0.0708,-0.0279
ATCCCTG,-0.15,-0.159,-0.177,0.214,-0.0169,0.2,-0.0586,-0.198,-0.134
TACCCGA,0.00973,-0.0885,-0.311,-1.36,0.0258,-0.901,-0.905,0.0229,-0.196
CTCTAGT,-2.03,-0.0846,-0.412,-1.04,-0.116,-1.09,-3.5,-0.0874,-0.13
TTTGCAC,-0.109,-0.147,-0.534,-0.775,0.0321,-1.21,0.00463,-0.104,-0.104
GGGAAAC,0.0737,0.164,0.849,2.09,-0.0469,2.24,0.211,0.142,0.17
GGAAGAC,0.0497,0.129,0.854,2.07,0.0751,2.2,0.251,0.0825,0.243
GCAGAAC,0.0372,-0.0695,0.114,0.271,-0.084,-0.205,0.0684,-0.101,-0.057
GTGGTCA,0.129,0.165,0.487,1.26,-0.0285,2.1,0.169,0.125,0.101
GGCGAGC,0.00431,-0.116,0.352,0.979,-0.0305,1.09,0.0551,0.0358,0.0901
CCCGTTC,-0.0161,-0.188,0.193,0.0583,-0.0984,0.164,-0.204,-0.168,-0.223
TGGGCTA,-0.0244,0.00354,0.76,1.61,-0.0756,2.04,0.18,-0.0535,-0.0269
GGTGATC,-0.0719,0.00891,0.694,1.61,-0.0491,2.06,0.135,0.0333,0.0679
GTGCCAT,-0.0124,0.00978,0.457,1.25,-0.0968,1.87,0.089,0.0312,0.0153
TATTCTC,-3.63,-2.98,-0.231,-0.85,-0.1,-0.619,-3.21,-0.0163,-0.268
TAAGAGC,0.0353,0.0209,-0.083,-0.396,0.0993,-0.997,0.142,-0.00778,-0.0164
TGCATTA,-0.0947,0.0462,-0.107,-0.464,0.0319,-0.506,-0.11,0.0267,0.0383
TTGAGGT,0.174,0.0108,0.349,0.829,-0.026,0.955,0.0574,-0.0782,-0.049
ACTGTAT,0.136,-0.0178,-0.0748,0.137,0.0549,0.259,-0.01,0.00582,0.0614
GCTTGAA,0.0475,0.119,0.209,0.634,0.116,0.121,0.184,0.212,0.086
AGGATAT,0.201,0.23,0.875,2.02,0.107,2.13,0.367,0.152,0.313
ATGTCGC,0.104,0.0646,-0.633,-0.439,0.125,-0.913,0.131,0.147,-0.0333
GTCTACT,-0.931,-0.0274,0.226,0.0517,0.0496,1.64,-2.57,0.0732,0.0147
ACGAATA,-0.096,-0.0513,-0.281,-1.12,-0.116,-0.521,-0.037,-0.153,-0.24
CTACTCC,-0.146,-0.134,0.0567,-0.833,-0.0427,0.432,0.0664,0.0118,-0.0572
ACCAACC,-0.154,0.0208,-0.109,-1.5,0.041,-0.582,-0.235,-0.0365,0.0338
TATCGCT,-0.0631,-0.0517,-1.04,-2.66,-0.0266,-1.28,-1.07,0.0117,-0.164
ATGTTAG,0.0192,-0.0617,-0.788,-0.408,0.014,-1.06,0.0534,-0.0562,-0.0855
GTGAACA,0.136,0.195,0.415,1.11,0.0443,1.93,0.107,0.126,0.213
GTCCCTT,0.0339,0.0182,0.396,0.656,0.0291,1.81,0.152,0.0475,0.198
